# ChEMBL document CHEMBL4513135, “CO-ADD screening of IQOG CSIS (Spain) compounds”
# “And” between values parts separate entries of the source, which are not always exact repeats. Equal values may be shown once. The list shows a part of the results. Potency and affinity values are given separately.
# Tested on: Acinetobacter baumannii
# Conditions: Concentration 32 ug.mL-1, ASSAY_TEST Inhibition of Bacterial Growth, detection method Absorption (OD600), MEDIA CAMHB, plate type 384well, NBS, CORNING #3640, time 18 hr
Structure (SMILES),Inhibition,Inhibition (32 ug/mL)
c1ccc(Cn2ccc3ccccc32)cc1,3.41%,
COc1ccc2c(c1)cc(CNc1ccccc1)n2C,15.42%,
COc1ccc2c(ccn2C)c1,-2.86%,
CCOC(=O)c1c(C)[nH]c2ccc(OC)cc12,-4.77%,
CCOC(=O)/C(C#N)=C\c1ccc(C)cc1,5.75%,
N#Cc1c(-c2ccccc2)c2ccc3ccccc3c2oc1=O,0.26%,
C=C1CNc2c(C#N)c(-c3ccccc3)c(C#N)c(=N)n21,4.7%,
N#Cc1c(N)nc(NCCCC2CCN(Cc3ccccc3)CC2)c(C#N)c1-c1ccccc1,1.64%,
Cc1ccc2nc(Cl)c(/C=N/N)cc2c1,12.29%,
N#Cc1cc(C#N)c(NC2CCN(Cc3ccccc3)CC2)nc1N,,7.41% and 4.81%
Cn1ccnc1C1C(C#N)=C(N)Oc2c1ccc1cccnc21 (centres undefined),2.45%,
C#CCNc1nc(N)c(C#N)cc1C#N,4.34%,
N#Cc1cc(C#N)c(Cl)nc1N,3.66%,
O=c1oc2cc(O)ccc2cc1-c1ccccc1,-2.52%,
Cl.Nc1c2c(nc3c1C(c1c(Cl)cccc1Cl)c1ccc4ccccc4c1O3)CCCC2 (centres undefined),-11.82%,
CCOC(=O)N/N=C/c1ccccc1,1.66%,
O=C1NC(=O)C(=Cc2ccccc2)N1,0.06%,
Cl.NC1(C(=O)O)CC1c1cccc(Cl)c1 (centres undefined),-7.94%,
N#C/C(=C\c1ccccc1Cl)C(=O)c1ccccc1,-0.17%,
CCCC(=O)NCc1c(-c2ccc(Cl)cc2)nc2ccccn12,12.94%,
CNN=C1N=C(SCc2ccccc2)SC1=O,-0.03%,
Cc1nc2c3c(C)nn(-c4ccccc4)c3ncn2n1,0.13%,
Cn1ccnc1C1c2ccc3ccccc3c2Oc2nc3c(c(N)c21)CCCCC3 (centres undefined),4.06%,

Structure (SMILES),Inhibition,Inhibition (32 ug/mL)
Cc1nc(NO)c2c(C)nn(-c3ccccc3)c2n1,-4.82%,
CC1=C(C(=O)N2[C@@H]3C[C@H]4CCC3(CS2(=O)=O)C4(C)C)C(c2ccccc2)C(C#N)=C(N)O1 (some centres undefined),2.11%,
C#CCN(C)Cc1cc2cc(O)ccc2n1C.Cl,11.48%,
COc1nc2nc3c(c(N)c2cc1C#N)CCCC3.Cl,7.68%,
COc1cc(C2c3ccc4ccccc4c3Oc3nc4c(c(N)c32)CCCC4)ccc1O.Cl (centres undefined),-15.17%,
C#CCN(C)c1nc(Sc2ccccc2)c(C#N)c(-c2ccccc2)c1C#N,-22.96%,
Cc1n[nH]c2c1C(c1ccc([N+](=O)[O-])cc1)C(C#N)=C(N)O2 (centres undefined),-4.49%,
COC1=C(C#N)CC(C)C(=O)N1 (centres undefined),2.17%,
Cc1cnc(NC(=O)OC(C)(C)C)c(Br)c1,7.81%,
O=C(N/N=C/c1c[nH]c2ccccc12)C(c1ccccc1)c1ccccc1,-15.34%,
C=C=CCN(C)Cc1cc2ccccc2n1C.O=C(O)C(=O)O,15.5%,
CCOC(=O)c1cn(C)c2ccccc12,10.06%,
C/C(=N\NC(=O)c1cc2ccccc2n1Cc1ccccc1)C1CC1,-1.88%,
N#Cc1c(N)nc(NCCC2CCN(Cc3ccccc3)CC2)c(C#N)c1-c1ccccc1,13.37%,
O=C(Cc1c[nH]c2ccccc12)NNCCc1ccccc1,7.47%,
COc1ccc2c(c1)cc(CN(C)Cc1cn(Cc3ccccc3)nn1)n2C,10.78%,
O=C(O)n1ccc2ccccc21,6.39%,
COc1nc(N)c(C#N)cc1C#N,6.65%,
Nc1c2c(nc3c1C(c1ccc(Cl)c(Cl)c1)c1ccc4ccccc4c1O3)CCCC2 (centres undefined),-17.9%,
Cn1c(C(=O)NCc2ccccc2)cc2cc(OCCCC3CCN(Cc4ccccc4)CC3)ccc21,15.39%,
CCOC(=O)C1=C(C)OC(N)=C(C#N)C1c1cccnc1 (centres undefined),6.55%,
N#CC1=C(N)Oc2c(ccc3ccccc23)C1c1cccc([N+](=O)[O-])c1 (centres undefined),6.66%,
Cc1ccc(C(O)SNNc2ncnc3c2cnn3-c2ccccc2)cc1 (centres undefined),0.88%,

Structure (SMILES),Inhibition,Inhibition (32 ug/mL)
CCOC(=O)C1=C(C)Oc2nc3c(c(N)c2C1c1nccn1C)CCCCC3 (centres undefined),15.42%,
CC1Cc2c(Br)nc3nc4c(c(N)c3c2NC1=O)CCCC4 (centres undefined),9.39%,
O=C(NN=Cc1c[nH]c2ccccc12)c1cccc2ccccc12,0.02%,
N#Cc1c(N)nc2c(c1-c1ccccc1)CN(Cc1ccccc1)CC2,-3.37%,
COc1cc(C2c3c(nc4c(c3N)CCC4)Oc3ccc4ccccc4c32)ccc1O (centres undefined),-5.26%,
CCOC(=O)c1c(C)nc2nc3c(c(N)c2c1-c1ccc(OC)cc1)CCCCCC3,5.95%,
C#CCNc1nc(OC)c(C#N)c(-c2ccccc2)c1C#N,7.68%,
C#CCNC(=O)c1cc2cc(OCCCC3CCN(Cc4ccccc4)CC3)ccc2[nH]1,4.12%,
CCOC(=O)/C(C#N)=C\c1ccc([N+](=O)[O-])cc1,7.12%,
C=CCNc1[nH]c2ccc(O)cc2c1C#N,12.81%,
CCCC(C)NNC(=O)c1cc2ccccc2[nH]1 (centres undefined),-1.27%,
CC(C)(C)OC(=O)Nc1ncccc1Br,13.31%,
COc1ccc(C2C(C#N)=C(N)Oc3ccc4ccccc4c32)cc1 (centres undefined),8.27%,
N#Cc1cc(C#N)c(Cl)nc1Cl,8.74%,
COc1ccc(-c2c(C#N)c(=O)oc3c2ccc2ccccc23)cc1,,0.82% and -5.46%
NNC(=O)C1(NC(=O)c2ccccc2)CC1c1cccc(O)c1 (centres undefined),-6.03%,
CC(=O)Nc1nn(C)c2nc3nc4c(c(N)c3cc12)CCCC4,,4.35% and 12.93%
O=C(Cc1c[nH]c2ccccc12)NN=C1CCCCCC1,3.75%,
N#CC1=C(N)Oc2ccc3ccccc3c2C1c1ccccc1[N+](=O)[O-] (centres undefined),8.21%,
CSC1=NC2(CC2c2ccccc2)C(=O)N1C (centres undefined),-4.07%,
CCOC(=O)c1cc2ccccc2[nH]1,4.42%,
N#Cc1cc(C#N)c(N2CCC(O)CC2)nc1N,9.39%,
CCOC(=O)c1c(C)nc(NC2CCN(Cc3ccccc3)CC2)c(C#N)c1-c1ccccc1,11.83%,
